Source: paper PMC12136788
The other results are listed elsewhere or left out.

B1: 138266329_138268266_2328_CDS_ENSG00000044115_ENST00000302763|human|control|control (ssRNA)
RNA: GGGAGUUCUACAGUCCGACGAUCAUGGUCUGCAAUGGUGCGGCCAAGCUUGUCCAUCCUGGAUCCUGCCUCAGCAAUUUUCUUGGCAGCACUGAUGACAUCCGAUGUAUUUUUGAGUGGUCCUUUACCUCGGGUAAAGUCUGUCAACAGAGGAUUGAGCAUCA
B2: chr1:58468927:58468928:-_ENSMUSG00000026034_ENSMUST00000148330|mus_mus|mus_mus_mus_hu_False|68_78 (ssRNA)
RNA: GGGAGUUCUACAGUCCGACGAUCAAUUACUGAAAAAGAUGUUCAUUACCUUAGCUAGGCCAUGUAUUUAAUAAAGCACCCAAACAAAAUAAACAUGGCAAUAUAAAAAUGUUAAGAAUUUACAAAGCUGUACAAAAUAACUUACAACAGAGGAUUGAGCAUCA
B3: chr1:39463905:39463906:+_ENSG00000174574_ENST00000432648|hu_hu|motif|central (ssRNA)
RNA: GGGAGUUCUACAGUCCGACGAUCUGAGGAGUGAGGUUGACUUUCCGAAGCACAAGCUUCACUCUGAUUAAGAACAACUUCGGAAUGUCUCCACCUCUGAUAACGACUAUAUUCUUGUUUUAUGUUCUGAAAAAUUUGCUCCGGCAACAGAGGAUUGAGCAUCA
B4: chr19:16212804:16212805:+_ENSG00000167460_ENST00000300933|hu_mus|hu_hu_hu_mus_False|38_108 (ssRNA)
RNA: GGGAGUUCUACAGUCCGACGAUCAACAAAUAUGCAAUGAAGGAAAGAUGUAACAUGGAACAGCAUUAAAGCUCAGUCAGAAGGCACAUGGGCAACAAUGACUAUUUCAGCAUUCUCGCUUGGAAUGCUUAAAGACAAUCUGUUCAACAGAGGAUUGAGCAUCA
B5: chrX:98862621:98862622:+_ENSMUSG00000034160_ENSMUST00000044475|mus_hu|mus_mus_mus_hu_False|8_88 (ssRNA)
RNA: GGGAGUUCUACAGUCCGACGAUCCUGCAUCUCCUUUAGAGUGUUUCCCAUAUUGGAGUAGGCAUCAGCAAAGGUAGGACUGAUUCGAAUAGCCUCCUUAUAAUGCAUCAGAGCUUCCUGCAGUUUUCCCUGCUGUUGCAGUACCAACAGAGGAUUGAGCAUCA
B6: 49670665_49670785_2326_CDS_ENSG00000102935_ENST00000562871|human|control|control (ssRNA)
RNA: GGGAGUUCUACAGUCCGACGAUCGUGGCACUGCAGCUCCACCUCGGUGCUGAAGGUCUCCCCACAGAAGAUGCACUUGUGAGCCUUGGCCGGGUUGCCCAGGUGGCUGUGUUUGACGUGCACCUGCAGGUCAGCCUCCUUGCGCAACAGAGGAUUGAGCAUCA

What follows are binders tested against T1, UNK ZnF1-3 (human, UniProt Q9C0B0 31-174) (assay: nsRBNS (natural sequence RNA bind-n-seq); RBNS binding buffer (assumed for nsRBNS): 25 mM Tris pH 7.5, 150 mM KCl, 3 mM MgCl2, 0.01% Triton X-100, 500 ug/ml BSA, 20 U/ml SUPERase-In, 4 C; UNK is unkempt and MSI1 is Musashi-1; names of the RNAs are library labels; protein concentration not given here; high values mean tight binding).
T1 sequence: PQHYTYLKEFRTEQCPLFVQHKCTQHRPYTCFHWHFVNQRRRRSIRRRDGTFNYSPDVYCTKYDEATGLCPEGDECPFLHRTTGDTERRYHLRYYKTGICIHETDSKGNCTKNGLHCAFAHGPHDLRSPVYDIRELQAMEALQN

| Binder | binding signal |
| --- | --- |
| B1 | 0.394 enrichment R |
| B2 | 2.58 enrichment R |
| B3 | 0.767 enrichment R |
| B4 | 0.955 enrichment R |
| B5 | 0.844 enrichment R |
| B6 | 0.376 enrichment R |
